Our source for the binding values is paper PMC9812374.

Amino acid sequences for entries named in this document (tags omitted).
UniProt Q8S307: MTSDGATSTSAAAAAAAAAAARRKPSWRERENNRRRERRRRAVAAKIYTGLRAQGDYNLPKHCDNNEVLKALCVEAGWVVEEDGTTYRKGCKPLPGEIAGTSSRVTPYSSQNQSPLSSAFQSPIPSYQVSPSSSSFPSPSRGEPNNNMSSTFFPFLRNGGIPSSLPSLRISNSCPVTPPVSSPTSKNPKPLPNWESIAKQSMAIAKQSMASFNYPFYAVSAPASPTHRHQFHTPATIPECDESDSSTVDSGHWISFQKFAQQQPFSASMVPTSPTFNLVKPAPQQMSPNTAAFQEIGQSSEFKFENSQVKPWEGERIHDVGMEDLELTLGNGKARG

Where two headings read alike, the source gives them in different places. No constants are given. Whether binding was seen depends on the method and setting. For some assays here: Binding seen in cells or lysates may run through a third protein. Some results given as binding are weak or reduced against the parent protein; the word gives no strength. For some assays here: Sequences can lack the tags named with a protein.

For experiment [1], the target named is BZR1, yeast two-hybrid fusion (Arabidopsis) (UniProt Q8S307). Nature of the experiment: two-hybrid; pGBKT7 and pGADT7 fusions in yeast; growth on SD medium lacking leucine, tryptophan, adenine and histidine, 30°C (3AT in Fig. 4D).
For experiment [2], the target named is T1, GRF4, yeast two-hybrid fusion (Arabidopsis), P46077.
T1 chain: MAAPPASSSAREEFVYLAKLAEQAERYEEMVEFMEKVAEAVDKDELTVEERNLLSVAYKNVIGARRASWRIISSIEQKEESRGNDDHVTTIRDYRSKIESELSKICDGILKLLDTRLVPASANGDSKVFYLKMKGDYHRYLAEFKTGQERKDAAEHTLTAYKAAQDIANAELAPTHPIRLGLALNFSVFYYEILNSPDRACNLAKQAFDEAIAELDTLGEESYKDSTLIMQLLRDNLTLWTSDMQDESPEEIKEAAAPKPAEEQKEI
Described as above. To be noted: remark: other sources report otherwise.

Experiment [3] concerns the target T2, GRF4-nLUC (Arabidopsis), P46077.
T2 chain: T1 chain
Nature of the experiment: split reporter; luciferase complementation imaging (LCI): GRF4-nLUC + cLUC-MPKs infiltrated into N. benthamiana leaves; luminescence after D-luciferin. To be noted: remark: other sources report otherwise.

For experiment [4], the target named is T3, cEYFP-GRF4 (Arabidopsis), P46077.
T3 chain: T1 chain
Nature of the experiment: split reporter; BiFC with nEYFP and cEYFP fusions in transfected Arabidopsis mesophyll protoplasts; confocal microscopy. The following applies: remark: other sources report otherwise.

For experiment [5], the target named is BZR1, yeast two-hybrid fusion (Arabidopsis) (UniProt Q8S307). The experiment is described as follows: two-hybrid; pGBKT7 and pGADT7 fusions in yeast; growth on SD medium lacking leucine, tryptophan, adenine and histidine, 30°C (3AT in Fig. 4D). This is another data set of the same source.
The target in experiment [6] is T4, GRF4, yeast two-hybrid fusion (Arabidopsis) (UniProt P46077).
T4 sequence: T1 chain
The experiment is described as above.

For the next experiment, the target named is T5, GRF4-nLUC (Arabidopsis) (UniProt P46077).
T5 sequence: T1 chain
Nature of the experiment: split reporter; luciferase complementation imaging (LCI): GRF4-nLUC + cLUC-MPKs infiltrated into N. benthamiana leaves; luminescence after D-luciferin.

In the next experiment the target is T6, cEYFP-GRF4 (Arabidopsis) (UniProt P46077).
T6 sequence: T1 chain
Nature of the experiment: split reporter; BiFC with nEYFP and cEYFP fusions in transfected Arabidopsis mesophyll protoplasts; confocal microscopy.

“MPK6, yeast two-hybrid fusion (from UniProt Q39026 1-395) (enzyme)”: in experiment [1], the binding entry is recorded as “no binding”.

B1: MPK6, yeast two-hybrid fusion, Q39026 1-395 (enzyme)
chain: MDGGSGQPAADTEMTEAPGGFPAAAPSPQMPGIENIPATLSHGGRFIQYNIFGNIFEVTAKYKPPIMPIGKGAYGIVCSAMNSETNESVAIKKIANAFDNKIDAKRTLREIKLLRHMDHENIVAIRDIIPPPLRNAFNDVYIAYELMDTDLHQIIRSNQALSEEHCQYFLYQILRGLKYIHSANVLHRDLKPSNLLLNANCDLKICDFGLARVTSESDFMTEYVVTRWYRAPELLLNSSDYTAAIDVWSVGCIFMELMDRKPLFPGRDHVHQLRLLMELIGTPSEEELEFLNENAKRYIRQLPPYPRQSITDKFPTVHPLAIDLIEKMLTFDPRRRITVLDALAHPYLNSLHDISDEPECTIPFNFDFENHALSEEQMKELIYREALAFNPEYQQ
Consider B1, for which, in experiment [2], the binding result was “binds”.

B2: cLUC-MPK6, Q39026 1-395 (enzyme)
chain: B1 chain
Consider B2, for which, in experiment [3], the binding result is given as “binds”.

B3: nEYFP-MPK6, Q39026 1-395 (enzyme)
chain: B1 chain
As to B3, in experiment [4], the binding result was “binds”.

B4: MPK3, yeast two-hybrid fusion, Q39023 1-370 (enzyme)
chain: MNTGGGQYTDFPAVETHGGQFISYDIFGSLFEITSKYRPPIIPIGRGAYGIVCSVLDTETNELVAMKKIANAFDNHMDAKRTLREIKLLRHLDHENIIAIRDVVPPPLRRQFSDVYISTELMDTDLHQIIRSNQSLSEEHCQYFLYQLLRGLKYIHSANIIHRDLKPSNLLLNANCDLKICDFGLARPTSENDFMTEYVVTRWYRAPELLLNSSDYTAAIDVWSVGCIFMELMNRKPLFPGKDHVHQMRLLTELLGTPTESDLGFTHNEDAKRYIRQLPNFPRQPLAKLFSHVNPMAIDLVDRMLTFDPNRRITVEQALNHQYLAKLHDPNDEPICQKPFSFEFEQQPLDEEQIKEMIYQEAIALNPTYG
As to B4, the binding result in experiment [2] was “binds”.

B5: cLUC-MPK3, Q39023 1-370 (enzyme)
chain: B4 chain
Consider B5, for which the binding result in experiment [3] was “binds”.

B6: MPK3, yeast two-hybrid fusion (enzyme, UniProt Q39023 1-370)
chain: B4 chain
For the molecule B6, in experiment [5], the binding result is on record as “no binding”.

B7: nEYFP-MPK3, Q39023 1-370 (enzyme)
chain: B4 chain
B7: the binding result in experiment [4] is on record as “binds”.

B8: MPK7, yeast two-hybrid fusion (enzyme, UniProt Q39027 1-368)
chain: MAMLVEPPNGIKQQGKHYYSMWQTLFEIDTKYVPIKPIGRGAYGVVCSSINRETNERVAIKKIHNVFENRVDALRTLRELKLLRHVRHENVIALKDVMLPANRSSFKDVYLVYELMDTDLHQIIKSSQSLSDDHCKYFLFQLLRGLKYLHSANILHRDLKPGNLLVNANCDLKICDFGLARTSQGNEQFMTEYVVTRWYRAPELLLCCDNYGTSIDVWSVGCIFAEILGRKPIFPGTECLNQLKLIINVVGSQQESDIRFIDNPKARRFIKSLPYSRGTHLSNLYPQANPLAIDLLQRMLVFDPTKRISVTDALLHPYMAGLFDPGSNPPAHVPISLDIDENMEEPVIREMMWNEMLYYHPEAEISNA
Consider B8, for which the binding result in experiment [6] is listed as “binds”.

B9: cLUC-MPK7 (enzyme, UniProt Q39027 1-368)
chain: B8 chain
Turning to B9, in the experiment with GRF4-nLUC (Arabidopsis), the binding entry is recorded as “binds”.

B10: nEYFP-MPK7 (enzyme, UniProt Q39027 1-368)
chain: B8 chain
Consider B10, for which, in the experiment with cEYFP-GRF4 (Arabidopsis), the binding entry is given as “binds”.
